No constants are given. Whether binding was seen depends on the method and setting. For part of these data: Binding seen in cells or lysates may run through a third protein. Some entries that bind do so weakly or less than the wild type. Tags and fused reporters may be left off the sequences shown.
T1: Cwc21-13myc (yeast (Saccharomyces cerevisiae)) (UniProt Q03375)
T1 sequence: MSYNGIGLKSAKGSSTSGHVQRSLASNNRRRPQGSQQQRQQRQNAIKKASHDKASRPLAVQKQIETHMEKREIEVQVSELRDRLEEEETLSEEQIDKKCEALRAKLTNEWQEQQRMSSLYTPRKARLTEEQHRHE

By UniProt entry, the sequences of proteins in these tests, tags left out.
UniProt P62139: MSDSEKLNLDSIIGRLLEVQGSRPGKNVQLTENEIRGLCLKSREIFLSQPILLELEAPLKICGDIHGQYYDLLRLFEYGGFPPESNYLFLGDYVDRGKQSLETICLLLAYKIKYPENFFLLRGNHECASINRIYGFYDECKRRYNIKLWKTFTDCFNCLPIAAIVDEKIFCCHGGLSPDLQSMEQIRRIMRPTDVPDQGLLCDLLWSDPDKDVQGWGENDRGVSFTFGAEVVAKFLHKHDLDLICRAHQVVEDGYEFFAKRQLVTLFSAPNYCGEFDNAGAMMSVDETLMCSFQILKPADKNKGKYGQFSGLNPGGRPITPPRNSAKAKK
UniProt P33334: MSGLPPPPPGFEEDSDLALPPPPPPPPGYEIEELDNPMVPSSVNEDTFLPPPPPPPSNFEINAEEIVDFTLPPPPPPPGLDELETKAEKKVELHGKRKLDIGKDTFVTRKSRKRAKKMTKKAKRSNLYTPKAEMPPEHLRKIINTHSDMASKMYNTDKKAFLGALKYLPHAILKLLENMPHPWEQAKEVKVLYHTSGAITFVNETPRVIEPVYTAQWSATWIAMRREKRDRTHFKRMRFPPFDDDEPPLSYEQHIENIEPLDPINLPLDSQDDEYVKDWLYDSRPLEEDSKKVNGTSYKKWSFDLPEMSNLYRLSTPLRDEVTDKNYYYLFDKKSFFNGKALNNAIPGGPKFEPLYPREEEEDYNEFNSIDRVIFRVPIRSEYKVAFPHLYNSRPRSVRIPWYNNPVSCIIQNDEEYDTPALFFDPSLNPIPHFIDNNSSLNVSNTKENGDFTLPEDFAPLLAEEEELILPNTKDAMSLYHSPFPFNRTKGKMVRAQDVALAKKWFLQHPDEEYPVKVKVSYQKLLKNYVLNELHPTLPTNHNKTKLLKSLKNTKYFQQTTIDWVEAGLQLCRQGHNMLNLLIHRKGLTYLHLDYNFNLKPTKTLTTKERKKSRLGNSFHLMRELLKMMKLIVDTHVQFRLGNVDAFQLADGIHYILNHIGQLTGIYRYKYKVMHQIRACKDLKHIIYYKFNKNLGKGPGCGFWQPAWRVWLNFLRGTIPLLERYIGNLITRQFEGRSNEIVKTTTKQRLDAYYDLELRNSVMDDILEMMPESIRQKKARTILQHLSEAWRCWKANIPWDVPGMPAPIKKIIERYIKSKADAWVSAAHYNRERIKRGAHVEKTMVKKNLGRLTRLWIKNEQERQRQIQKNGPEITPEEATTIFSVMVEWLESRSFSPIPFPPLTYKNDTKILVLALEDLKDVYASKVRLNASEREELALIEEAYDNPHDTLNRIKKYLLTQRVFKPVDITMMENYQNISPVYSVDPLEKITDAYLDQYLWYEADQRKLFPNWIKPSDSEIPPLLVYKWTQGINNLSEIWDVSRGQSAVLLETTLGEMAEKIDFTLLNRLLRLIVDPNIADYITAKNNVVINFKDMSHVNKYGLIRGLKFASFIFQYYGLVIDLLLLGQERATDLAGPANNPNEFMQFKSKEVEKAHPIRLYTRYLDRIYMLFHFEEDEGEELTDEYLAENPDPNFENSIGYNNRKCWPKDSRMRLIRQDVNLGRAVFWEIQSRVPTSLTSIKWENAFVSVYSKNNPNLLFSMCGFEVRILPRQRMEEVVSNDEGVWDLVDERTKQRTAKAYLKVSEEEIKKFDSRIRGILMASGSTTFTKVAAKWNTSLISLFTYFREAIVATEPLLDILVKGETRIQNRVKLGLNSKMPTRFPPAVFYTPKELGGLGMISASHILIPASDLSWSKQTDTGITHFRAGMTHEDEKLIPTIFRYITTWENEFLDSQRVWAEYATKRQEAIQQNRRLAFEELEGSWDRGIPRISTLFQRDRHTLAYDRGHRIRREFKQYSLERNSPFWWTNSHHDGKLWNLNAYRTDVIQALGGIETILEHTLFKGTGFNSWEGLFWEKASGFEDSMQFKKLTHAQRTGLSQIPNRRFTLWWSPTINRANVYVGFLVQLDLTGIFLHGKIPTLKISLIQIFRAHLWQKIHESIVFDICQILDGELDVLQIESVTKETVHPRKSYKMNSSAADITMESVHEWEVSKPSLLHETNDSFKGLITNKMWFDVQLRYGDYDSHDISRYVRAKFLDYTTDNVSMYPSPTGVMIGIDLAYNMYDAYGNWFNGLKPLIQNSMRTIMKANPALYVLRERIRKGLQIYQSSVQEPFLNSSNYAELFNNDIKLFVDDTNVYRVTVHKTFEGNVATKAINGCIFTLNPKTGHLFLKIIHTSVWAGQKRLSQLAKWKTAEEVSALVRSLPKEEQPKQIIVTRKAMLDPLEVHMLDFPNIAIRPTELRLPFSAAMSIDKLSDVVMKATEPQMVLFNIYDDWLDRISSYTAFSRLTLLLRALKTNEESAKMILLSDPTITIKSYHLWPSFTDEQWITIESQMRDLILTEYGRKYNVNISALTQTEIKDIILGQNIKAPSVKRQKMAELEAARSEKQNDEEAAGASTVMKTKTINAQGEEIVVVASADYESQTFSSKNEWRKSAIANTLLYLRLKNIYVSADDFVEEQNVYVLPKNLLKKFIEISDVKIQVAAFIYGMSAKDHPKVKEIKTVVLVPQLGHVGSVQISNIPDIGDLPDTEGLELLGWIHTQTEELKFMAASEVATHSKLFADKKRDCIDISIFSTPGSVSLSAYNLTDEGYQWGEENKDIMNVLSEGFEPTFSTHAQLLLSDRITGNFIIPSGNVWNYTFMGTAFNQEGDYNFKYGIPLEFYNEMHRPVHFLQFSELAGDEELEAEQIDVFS

T2: GST-Cwc21 (yeast (Saccharomyces cerevisiae)) (UniProt Q03375)
T2 sequence: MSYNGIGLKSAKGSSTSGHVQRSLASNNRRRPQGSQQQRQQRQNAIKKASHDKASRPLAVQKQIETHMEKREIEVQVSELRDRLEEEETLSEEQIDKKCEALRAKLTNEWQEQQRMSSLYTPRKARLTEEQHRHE

B1: MBP-ySnu114-ΔN (yeast Snu114, 134-1008aa) (domain or fragment, UniProt P36048 134-1008)
chain: INVGVIGPLHSGKTSLMDLLVIDSHKRIPDMSKNVELGWKPLRYLDNLKQEIDRGLSIKLNGSTLLCTDLESKSRMINFLDAPGHVNFMDETAVALAASDLVLIVIDVVEGVTFVVEQLIKQSIKNNVAMCFVINKLDRLILDLKLPPMDAYLKLNHIIANINSFTKGNVFSPIDNNIIFASTKLGFTFTIKEFVSYYYAHSIPSSKIDDFTTRLWGSVYYHKGNFRTKPFENVEKYPTFVEFILIPLYKIFSYALSMEKDKLKNLLRSNFRVNLSQEALQYDPQPFLKHVLQLIFRQQTGLVDAITRCYQPFELFDNKTAHLSIPGKSTPEGTLWAHVLKTVDYGGAEWSLVRIYSGLLKRGDTVRILDTSQSESRQKRQLHDISKTETSNEDEDEDDETPSCEVEEIGLLGGRYVYPVHEAHKGQIVLIKGISSAYIKSATLYSVKSKEDMKQLKFFKPLDYITEAVFKIVLQPLLPRELPKLLDALNKISKYYPGVIIKVEESGEHVILGNGELYMDCLLYDLRASYAKIEIKISDPLTVFSESCSNESFASIPVSNSISRLGEENLPGLSISVAAEPMDSKMIQDLSRNTLGKGQNCLDIDGIMDNPRKLSKILRTEYGWDSLASRNVWSFYNGNVLINDTLPDEISPELLSKYKEQIIQGFYWAVKEGPLAEEPIYGVQYKLLSISVPSDVNIDVMKSQIIPLMKKACYVGLLTAIPILLEPIYEVDITVHAPLLPIVEELMKKRRGSRIYKTIKVAGTPLLEVRGQVPVIESAGFETDLRLSTNGLGMCQLYFWHKIWRKVPGDVLDKDAFIPKLKPAPINSLSRDFVMKTRRRKGISTGGFMSNDGPTLEKYISAELYAQLRENGLVP
B2: Snu114 (in yeast whole cell extract) (protein, UniProt P36048 1-1008)
chain: MEGDDLFDEFGNLIGVDPFDSDEEESVLDEQEQYQTNTFEGSGNNNEIESRQLTSLGSKKELGISLEHPYGKEVEVLMETKNTQSPQTPLVEPVTERTKLQEHTIFTQLKKNIPKTRYNRDYMLSMANIPERIINVGVIGPLHSGKTSLMDLLVIDSHKRIPDMSKNVELGWKPLRYLDNLKQEIDRGLSIKLNGSTLLCTDLESKSRMINFLDAPGHVNFMDETAVALAASDLVLIVIDVVEGVTFVVEQLIKQSIKNNVAMCFVINKLDRLILDLKLPPMDAYLKLNHIIANINSFTKGNVFSPIDNNIIFASTKLGFTFTIKEFVSYYYAHSIPSSKIDDFTTRLWGSVYYHKGNFRTKPFENVEKYPTFVEFILIPLYKIFSYALSMEKDKLKNLLRSNFRVNLSQEALQYDPQPFLKHVLQLIFRQQTGLVDAITRCYQPFELFDNKTAHLSIPGKSTPEGTLWAHVLKTVDYGGAEWSLVRIYSGLLKRGDTVRILDTSQSESRQKRQLHDISKTETSNEDEDEDDETPSCEVEEIGLLGGRYVYPVHEAHKGQIVLIKGISSAYIKSATLYSVKSKEDMKQLKFFKPLDYITEAVFKIVLQPLLPRELPKLLDALNKISKYYPGVIIKVEESGEHVILGNGELYMDCLLYDLRASYAKIEIKISDPLTVFSESCSNESFASIPVSNSISRLGEENLPGLSISVAAEPMDSKMIQDLSRNTLGKGQNCLDIDGIMDNPRKLSKILRTEYGWDSLASRNVWSFYNGNVLINDTLPDEISPELLSKYKEQIIQGFYWAVKEGPLAEEPIYGVQYKLLSISVPSDVNIDVMKSQIIPLMKKACYVGLLTAIPILLEPIYEVDITVHAPLLPIVEELMKKRRGSRIYKTIKVAGTPLLEVRGQVPVIESAGFETDLRLSTNGLGMCQLYFWHKIWRKVPGDVLDKDAFIPKLKPAPINSLSRDFVMKTRRRKGISTGGFMSNDGPTLEKYISAELYAQLRENGLVP
B3: MBP-hSnu114-787/9A-ΔN (human Snu114 130-972 with V787A and F789A) (domain or fragment, UniProt Q15029 130-972)
chain: RNVTLCGHLHHGKTCFVDCLIEQTHPEIRKRYDQDLCYTDILFTEQERGVGIKSTPVTVVLPDTKGKSYLFNIMDTPGHVNFSDEVTAGLRISDGVVLFIDAAEGVMLNTERLIKHAVQERLAVTVCINKIDRLILELKLPPTDAYYKLRHIVDEVNGLISMYSTDENLILSPLLGNVCFSSSQYSICFTLGSFAKIYADTFGDINYQEFAKRLWGDIYFNPKTRKFTKKAPTSSSQRSFVEFILEPLYKILAQVVGDVDTSLPRTLDELGIHLTKEELKLNIRPLLRLVCKKFFGEFTGFVDMCVQHIPSPKVGAKPKIEHTYTGGVDSDLGEAMSDCDPDGPLMCHTTKMYSTDDGVQFHAFGRVLSGTIHAGQPVKVLGENYTLEDEEDSQICTVGRLWISVARYHIEVNRVPAGNWVLIEGVDQPIVKTATITEPRGNEEAQIFRPLKFNTTSVIKIAVEPVNPSELPKMLDGLRKVNKSYPSLTTKVEESGEHVILGTGELYLDCVMHDLRKMYSEIDIKVADPVVTFCETVVETSSLKCFAETPNKKNKITMIAEPLEKGLAEDIENEVVQITWNRKKLGEFFQTKYDWDLLAARSIWAFGPDATGPNILVDDTLPSEVDKALLGSVKDSIVQGFQWGTREGPLCDELIRNAKAKILDAVVAQEPLHRGGGQIIPTARRVVYSAFLMATPRLMEPYYFVEVQAPADCVSAVYTVLARRRGHVTQDAPIPGSPLYTIKAFIPAIDSFGFETDLRTHTQGQAFSLSVFHHWQIVPGDPLDKSIVIRPLEPQPAPHLAREFMIKTRRRKGLSEDVSISKFFDDPMLLELAKQDVVLNYPM
B4: MBP-ySnu114-814/6/8-A-ΔN (yeast Snu114 134-1008 with three Alanine substitutions in YGVQYK) (domain or fragment, UniProt P36048 134-1008)
chain: INVGVIGPLHSGKTSLMDLLVIDSHKRIPDMSKNVELGWKPLRYLDNLKQEIDRGLSIKLNGSTLLCTDLESKSRMINFLDAPGHVNFMDETAVALAASDLVLIVIDVVEGVTFVVEQLIKQSIKNNVAMCFVINKLDRLILDLKLPPMDAYLKLNHIIANINSFTKGNVFSPIDNNIIFASTKLGFTFTIKEFVSYYYAHSIPSSKIDDFTTRLWGSVYYHKGNFRTKPFENVEKYPTFVEFILIPLYKIFSYALSMEKDKLKNLLRSNFRVNLSQEALQYDPQPFLKHVLQLIFRQQTGLVDAITRCYQPFELFDNKTAHLSIPGKSTPEGTLWAHVLKTVDYGGAEWSLVRIYSGLLKRGDTVRILDTSQSESRQKRQLHDISKTETSNEDEDEDDETPSCEVEEIGLLGGRYVYPVHEAHKGQIVLIKGISSAYIKSATLYSVKSKEDMKQLKFFKPLDYITEAVFKIVLQPLLPRELPKLLDALNKISKYYPGVIIKVEESGEHVILGNGELYMDCLLYDLRASYAKIEIKISDPLTVFSESCSNESFASIPVSNSISRLGEENLPGLSISVAAEPMDSKMIQDLSRNTLGKGQNCLDIDGIMDNPRKLSKILRTEYGWDSLASRNVWSFYNGNVLINDTLPDEISPELLSKYKEQIIQGFYWAVKEGPLAEEPIAGAQAKLLSISVPSDVNIDVMKSQIIPLMKKACYVGLLTAIPILLEPIYEVDITVHAPLLPIVEELMKKRRGSRIYKTIKVAGTPLLEVRGQVPVIESAGFETDLRLSTNGLGMCQLYFWHKIWRKVPGDVLDKDAFIPKLKPAPINSLSRDFVMKTRRRKGISTGGFMSNDGPTLEKYISAELYAQLRENGLVP

Experiments:
[1] = target: T1, Cwc21-13myc (yeast (Saccharomyces cerevisiae)); assay: co-IP; Cwc21-13myc immunoprecipitated with anti-myc antibody (9E11) from yeast whole cell extract with GDP, GMPPNP or no nucleotide added; blots with anti-Prp8 and anti-Snu114
[2] = target: T2, GST-Cwc21 (yeast (Saccharomyces cerevisiae)); assay: pull-down; GST-tagged protein on glutathione beads, MBP-tagged Snu114 detected with anti-MBP HRP; 15 pmol of each protein, IP150 (6 mM HEPES pH 7.9, 150 mM NaCl, 5 mM MgCl2), 4°C; both purified
[3] = target: GST-PP1 (rabbit PP1 catalytic subunit, full length) (rabbit) (UniProt P62139); assay: as above

Row | Molecule | binding [1] | binding [2] | binding [3]
1 | Prp8 (in yeast whole cell extract) (from UniProt P33334 1-2413) | binds |  | 
2 | B1 |  | binds | 
3 | B2 | binds |  | 
4 | B3 |  |  | no binding (tested: 15 pmol of each protein)
5 | B4 |  | no binding (tested: 15 pmol of each protein) | no binding (tested: 15 pmol of each protein)
